The source of these data is the supplement of paper PMC8728848.

What all share (experiment): glycan array binding signal (z-score within array); higher = stronger binding
Holding throughout (conditions): glycan notation: IUPAC condensed, linker removed; mutation: H59Q

The target in experiment [1] is Gal(b1-4)GalNAc(b1-3)[Fuc(a1-2)]Gal(b1-4)GlcNAc. In short, it runs like this: (§1)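 Columns mapping to the same glycan were averaged after glycan names were converted to IUPAC-condensed notation. The data come from 3228 arrays in the Consortium for Functional Glycomics database, limited to those with an available protein sequence. Binding is reported as a within-array Z-score averaged across arrays of one protein sequence and across linkers.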

In experiment [2] the target is Gal(b1-4)Glc. In short, it runs like this:
as §1

The target of experiment [3] is Gal(b1-4)Glc6S. In short, it runs like this:
as §1

The target of experiment [4] is Gal(b1-4)GlcNAc. The procedure, abridged: as §1
In experiment [5] the target is Gal(b1-4)GlcNAc(a1-6)Gal(b1-4)GlcNAc. In short, it runs like this: as §1
The target of experiment [6] is Gal(b1-4)GlcNAc(b1-2)Man. The procedure, abridged: as §1
Experiment [7] has as its target Gal(b1-4)GlcNAc(b1-2)Man(a1-3)Man(b1-4)GlcNAc(b1-4)GlcNAc. In short, it runs like this: as §1
The target of experiment [8] is Gal(b1-4)GlcNAc(b1-2)Man(a1-3)[Gal(b1-4)GlcNAc(b1-2)Man(a1-6)]Man(b1-4)GlcNAc(b1-4)GlcNAc. In short, it runs like this: as §1
For experiment [9], the target named is Gal(b1-4)GlcNAc(b1-2)Man(a1-3)[Gal(b1-4)GlcNAc(b1-2)Man(a1-6)]Man(b1-4)GlcNAc(b1-4)[Fuc(a1-6)]GlcNAc. The procedure, abridged: as §1
Experiment [10] addresses Gal(b1-4)GlcNAc(b1-2)Man(a1-3)[Gal(b1-4)GlcNAc(b1-2)Man(a1-6)][Gal(b1-4)GlcNAc(b1-4)]Man(b1-4)GlcNAc(b1-4)[Fuc(a1-6)]GlcNAc. The procedure, abridged:
as §1

Experiment [11] deals with Gal(b1-4)GlcNAc(b1-2)Man(a1-3)[Gal(b1-4)GlcNAc(b1-2)Man(a1-6)][GlcNAc(b1-4)]Man(b1-4)GlcNAc(b1-4)[Fuc(a1-6)]GlcNAc. The procedure, abridged:
as §1

Experiment [12] has as its target Gal(b1-4)GlcNAc(b1-2)Man(a1-3)[GlcNAc(b1-2)Man(a1-6)]Man(b1-4)GlcNAc(b1-4)GlcNAc. The procedure, abridged:
as §1

Experiment [13] concerns the target Gal(b1-4)GlcNAc(b1-2)Man(a1-3)[GlcNAc(b1-4)][Gal(b1-4)GlcNAc(b1-2)Man(a1-6)]Man(b1-4)GlcNAc(b1-4)GlcNAc. In short, it runs like this: as §1
Experiment [14] has as its target Gal(b1-4)GlcNAc(b1-2)Man(a1-3)[Man(a1-6)]Man(b1-4)GlcNAc(b1-4)GlcNAc. In short, it runs like this:
as §1

For experiment [15], the target named is Gal(b1-4)GlcNAc(b1-2)Man(a1-6)Man(b1-4)GlcNAc(b1-4)GlcNAc. The procedure, abridged: as §1
Experiment [16] concerns the target Gal(b1-4)GlcNAc(b1-2)Man(a1-6)[GlcNAc(b1-2)Man(a1-3)]Man(b1-4)GlcNAc(b1-4)GlcNAc. In short, it runs like this:
as §1

Experiment [17] concerns the target Gal(b1-4)GlcNAc(b1-2)Man(a1-6)[Man(a1-3)]Man(b1-4)GlcNAc(b1-4)GlcNAc. In short, it runs like this: as §1
The target in experiment [18] is Gal(b1-4)GlcNAc(b1-2)[Gal(b1-4)GlcNAc(b1-4)]Man(a1-3)[Gal(b1-4)GlcNAc(b1-2)Man(a1-6)]Man(b1-4)GlcNAc(b1-4)GlcNAc. In short, it runs like this:
as §1

Experiment [19] concerns the target Gal(b1-4)GlcNAc(b1-2)[Gal(b1-4)GlcNAc(b1-4)]Man(a1-3)[Gal(b1-4)GlcNAc(b1-2)[Gal(b1-4)GlcNAc(b1-6)]Man(a1-6)]Man(b1-4)GlcNAc(b1-4)GlcNAc. The procedure, abridged: as §1
Experiment [20] has as its target Gal(b1-4)GlcNAc(b1-2)[Gal(b1-4)GlcNAc(b1-4)]Man(a1-3)[GlcNAc(b1-4)][Gal(b1-4)GlcNAc(b1-2)Man(a1-6)]Man(b1-4)GlcNAc(b1-4)GlcNAc. The procedure, abridged: as §1
Experiment [21] deals with Gal(b1-4)GlcNAc(b1-2)[Gal(b1-4)GlcNAc(b1-4)]Man(a1-3)[GlcNAc(b1-4)][Gal(b1-4)GlcNAc(b1-2)[Gal(b1-4)GlcNAc(b1-6)]Man(a1-6)]Man(b1-4)GlcNAc(b1-4)GlcNAc. The procedure, abridged:
as §1

The target in experiment [22] is Gal(b1-4)GlcNAc(b1-2)[Gal(b1-4)GlcNAc(b1-6)]Man(a1-6)[Gal(b1-4)GlcNAc(b1-2)Man(a1-3)]Man(b1-4)GlcNAc(b1-4)GlcNAc. In short, it runs like this:
as §1

This is one part of the list.

B1: rAAL-H59Q (Agrocybe aegerita), Q6WY08 (protein)
chain: MQGVNIYNISAGTSVDLAAPVTTGDIVTFFSSALNLNAGAGNPNNTTLNLFAENGAYLLQIAFRLQENVIIFNSRQPDGPWLVEQRVSDVANQFAGIDGKAMVTVFDHGDKYQVVINEKTVIQYTKQISGLTLSLSYNATEETSIFSTVVEAVTYTGLALEHHHHHH
Regarding B1, the “glycan array binding signal (z-score)” value in [1] is -0.053; in experiment [2] it was -0.097; in experiment [3], 0.021; in experiment [4], -0.07; in experiment [5], -0.046; in experiment [6] it was 0.03. In addition, the “glycan array binding signal (z-score)” value in [7] is -0.101; in [8], -0.098; in [9], -0.009; in [10] it was -0.084; in [11], -0.116; in experiment [12], -0.101. The “glycan array binding signal (z-score)” value was -0.06 in [13]; -0.059 in experiment [14]; -0.034 in [15]; -0.072 in [16]; 0.003 in experiment [17]; -0.107 in experiment [18]. The “glycan array binding signal (z-score)” value was -0.012 in experiment [19], -0.111 in experiment [20], -0.098 in experiment [21] and -0.032 in experiment [22].
